Results as given in PubChem BioAssay AID485364 (National Center for Advancing Translational Sciences (NCATS), 2010).
The campaign covered roughly 360,000 compounds. About 11,000 (3.1%) were called active. Inconclusive means that the source gave no clear call. Such entries were picked first, then a sample of the others. The call rests on the fitted dose curve; in most records, active means well fitted inhibition curve with a large enough effect; inconclusive means small, poorly fitted or top-dose-only effect; inactive means no such curve, though single readings can be large or run the other way. Potencies of inconclusive entries are left out as doubtful fits.

Molecular target: Schistosoma mansoni thioredoxin glutathione reductase (TGR) (UniProt Q962Y6)
Experiment: qHTS Assay for the Inhibitors of Schistosoma Mansoni Peroxiredoxins; further: nearly all actives have a fitted effect of over 60% in size
Details: purified TGR, DTNB reduction, TNB absorbance 405 nm; activity change, negative = inhibition: at 114 µM (top of the series) unless noted
How it was run: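 Kinetic colorimetric format: TGR-catalysed, NADPH-driven DTNB reduction monitored via TNB absorbance. Enzyme dispensed at 20 nM; compound exposure 15 min at room temperature before reaction start.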
On the % scale 0 is the no-effect control and ±100 the full control effect; potency means the concentration at half of the fitted maximal effect; tags describe the fitted curve by direction and shape.

Row | SMILES | Potency | activity change, negative = inhibition
1 | CCN1CCc2nc(N)oc2CC1 | active: 5.62 µM | –
2 | Cc1cccc(CSc2nnc(-c3ccco3)n2C)c1 | – | inactive: 0%
3 | COC(=O)C1Cc2c([nH]c3ccccc23)CN1C(C)=O (centres undefined) | inconclusive [inhibitor, single point] | –
4 | O=C(CSc1nccc(=O)[nH]1)c1cc2ccccc2o1 | – | inactive: 7.58%
5 | O=C(NNc1ncnc2c1cnn2-c1cccc(Cl)c1)c1ccco1 | – | inactive: -7.32%
6 | C#CCOCCOCCOCCNc1nc(N2CCN(C(=O)CCCCCCCCCCNC(=O)[C@H]([C@@H](C)CC)n3cc(CCCCN=C(N)N)nn3)CC2)nc(N2CCN(C(=O)CCCCCCCCCCNC(=O)[C@@H]([C@H](C)O)n3cc(C)nn3)CC2)n1 | inconclusive [inhibitor, partial curve] | –
7 | CCOC(=O)c1c(-c2ccc(C)o2)csc1NC(=O)CN1CCC(C(N)=O)CC1 | active: 14.1 µM | –
8 | COC(=O)CSc1nc2sc3c(c2c(=O)n1-c1ccccc1)CCN(C)C3 | active: 35.5 µM | –
9 | CC(=NCc1ccco1)C1=C(O)c2ccccc2C1=O | inconclusive [inhibitor, partial curve] | –
10 | COc1ccc([C@]23Cc4cc(C#N)ccc4C(O2)C2=C(CC4(CCCCC4)OC2=O)O3)cc1 | inconclusive [inhibitor, partial curve] | –
11 | CC(=O)N1CC(=O)Nc2ccc(F)cc2C1c1ccccc1 (centres undefined) | inconclusive [inhibitor, single point] | –
12 | Cc1c(Cl)ccc2sc(NC(=O)c3ccco3)nc12 | – | inactive: -9.28%
13 | COc1ccc(C(=O)NCCCn2ccnc2)cc1[N+](=O)[O-] | inconclusive [inhibitor, partial curve, poor fit] | –
14 | O=C(CC1C(=O)NCCN1Cc1ccccc1)NCCC1=CCCCC1 (centres undefined) | inconclusive [inhibitor, partial curve, poor fit] | –
15 | COc1cc(CNc2ccc3[nH]c(=O)[nH]c3c2)cc(Cl)c1OCC(=O)NC(C)(C)C | inconclusive [inhibitor, partial curve] | –
16 | Nc1ccc(Oc2ccccc2F)nc1 | inconclusive [inhibitor, partial curve] | –
17 | CC(C)(C)NC(=O)/C(=C/c1ccco1)c1ccccc1 | inconclusive [inhibitor, partial curve] | –
18 | CCCCN1C(=O)C(=O)N(CC(=O)N2N=C3/C(=C/c4ccco4)CCCC3C2c2ccco2)C1=O (centres undefined) | inconclusive [inhibitor, partial curve] | –
19 | CC1CC(C)CN(S(=O)(=O)N2CCCC(C(=O)NCc3ccccc3Cl)C2)C1 (centres undefined) | inconclusive [inhibitor, single point] | –
20 | O=C(CCS(=O)(=O)c1cccc2nsnc12)N1CCN(C(=O)c2ccco2)CC1 | inconclusive [inhibitor, partial curve] | –
21 | Cc1oc(-c2ccccc2Cl)nc1CSCC(=O)N1CCCC1 | inconclusive [inhibitor, partial curve] | –
22 | CC(=O)c1c(C)n(Cc2ccccc2Cl)c2ccc(O)cc12 | – | inactive: 13.2%

Row | SMILES | Potency | activity change, negative = inhibition
23 | N#CC(C#N)=Cc1ccccc1OCc1ccccc1 | active: 3.16 µM | –
24 | Cc1ccc(NC(=O)CSC2=C(C#N)C(c3ccco3)C3=C(CCCC3=O)N2)cc1 (centres undefined) | – | inactive: -25.9%
25 | Cc1csc2nc(COC(=O)c3cccc(NC(=O)c4cccc(Cl)c4)c3)cc(=O)n12 | – | inactive: -13.4%
26 | COc1ccc([C@@H]2C=C(C(=O)O)O[C@H](OCCCCO)C2)cc1 | inconclusive [inhibitor, partial curve] | –
27 | Cc1cccc(-n2c(Cc3ccccc3)nnc2SCC(=O)N2CCOCC2)c1 | – | inactive: 3.35% [at 11.4 µM]
28 | COc1ccc(C2=NOC(Cn3nc(C(=O)NCc4ccco4)cc3-c3ccccc3)C2)cc1 (centres undefined) | inconclusive [inhibitor, partial curve] | –
29 | Cc1ccc(C(=O)N[C@@H](C)CN2C3=NC[C@H](C)N3C[C@H]2Cc2ccc(O)cc2)cc1Br | active: 50.1 µM | –
30 | COc1ccc(/C=N/c2c(-c3ccc(OC)cc3)nc3n2CCS3)cc1 | inconclusive [inhibitor, partial curve] | –
31 | c1ccc(-n2ncc3c(NCc4ccco4)ncnc32)cc1 | inconclusive [inhibitor, partial curve] | –
32 | O=C(Nc1cccc(NC(=O)c2ccc([N+](=O)[O-])o2)c1)c1ccco1 | inconclusive [inhibitor, full curve, poor fit] | –
33 | CCCC(=O)Nc1ccc(-c2csc(N/N=C\c3ccncc3)n2)cc1 | active: 17.8 µM | –
34 | Cc1ccc(S(=O)(=O)NNC(=O)c2cccs2)c(C)c1 | inconclusive [inhibitor, single point] | –
35 | COc1ccc(OC)c(C(C)NC(=O)C(C)n2cc([N+](=O)[O-])cn2)c1 (centres undefined) | – | inactive: -5.64%
36 | CC(C)Oc1ccc(CNC(=O)c2ccc(CS(=O)c3cccc(Cl)c3)o2)cc1 (centres undefined) | inconclusive [inhibitor, partial curve] | –
37 | COCCn1c(Cc2ccccc2)nnc1SCC(=O)N1CCOCC1 | inconclusive [inhibitor, single point] | –
38 | COc1ccc(C(CCN(Cc2ccc(OC)c(OC)c2)C(=O)CCl)c2ccccc2)cc1 (centres undefined) | active: 8.91 µM | –
39 | CCN(CC)S(=O)(=O)c1ccc2c(c1)N(CC(=O)N1CCN(c3cccc(Cl)c3)CC1)C(=O)CO2 | inconclusive [inhibitor, single point] | –
40 | COc1ccc(-n2c(Cc3ccccc3)nnc2SCc2nc(-c3cccs3)no2)cc1 | – | inactive: 0.552%
41 | CCCC[C@]12Cc3cc(OC)c(OC)cc3C(O1)C1=C(O2)C(=O)c2ccccc2C1=O | inconclusive [inhibitor, partial curve, poor fit] | –
42 | NS(=O)(=O)c1ccc(NC(=O)COC(=O)c2ccc([N+](=O)[O-])s2)cc1 | active: 25.1 µM | –
43 | FC(F)(F)c1nnc(-c2ccccc2)nc1Sc1ccccc1 | inconclusive [inhibitor, full curve] | –
44 | CN(C1CCCC1)C1CCN(C(=S)Nc2cc(F)cc(F)c2)CC1 | inconclusive [inhibitor, partial curve] | –
